For part of these data: At least one read-out could not be matched to a standard name with certainty. Some results were stated once for a whole list of compounds, not compound by compound.
What was measured:
WI-38 cells = details: for Screen 1: Screening, at 10 uM (viability assay by ATP measurement, normalized fold-change shown, >=2.5): 24 h, then 700 μM H2O2 3 h, normalized to DMSO; for Screen 2: Dose response, at 10 uM (viability assay by ATP measurement, normalized fold-change shown, >=1.5) / Screen 3: Dose response, at 20 uM (viability assay by ATP measurement, normalized fold-change shown): H2O2 stress; for Exp. 1, under H2O2 stress treatment, at 10 uM (fold change): Exp. 1, WI-38 cells; for Exp. 1, under H2O2 stress treatment, at 10 uM (fold change) / Exp. 2, under H2O2 stress treatment, at 10 uM (fold change): normalized ATP measurement (Table 12); for Exp. 2, under H2O2 stress treatment, at 10 uM (fold change): Exp. 2, WI-38 cells; for Experiment 1, WI-38 cells (under H2O2 stress treatment), at 10 uM (fold change) / Experiment 2, WI-38 cells (under H2O2 stress treatment), at 10 uM (fold change): 10 uM (run along with HDF cells); for Dose response retest, at 10 uM (fold change) / Dose response retest, at 20 uM (fold change) / Library Screening, at 10 uM (fold change): H2O2-resistance of WI-38 cells; for Dose response retest, at 10 uM (fold change) / Dose response retest, at 20 uM (fold change): cherry-picked retest; for H2O2 stress treatment (3 hrs), at 10 uM (fold change): WI-38 cells, H2O2 3 hrs, normalized ATP measurement
LC3A/B puncta = test: Autophagy induction analysis (LC3A/B puncta immuno-staining); type: cell-based, human; details: WI-38, 24 hrs
Procedure: Immuno-staining of LC3A/B was performed, following a standard protocol. Briefly, WI-38 cells were treated with small molecules for 24 hrs, and then processed and incubated with primary antibody (Cell Signaling, rabbit anti-LC3A/B, 1:100) overnight at 4° C. Next day, samples were processed and incubated with fluorophore-conjugated secondary antibody and further incubated with DAPI dye. Images were collected on the INCell Analyzer 2000 (Experiment 1: 10× objective; Experiment 2: 20× objective) and analyzed with the Developer Toolbox. For Experiment 2, lysosomal-associated membrane protein 2 (LAMP2) was also counter-stained to identify the LC3A/B puncta that colocalize with lysosome and the data were analyzed by the MetaXpress software (Molecular Devices, version 5.1). The intensity of total (Exp. 1) or LAMP2-colocalized LC3A/B puncta (Exp. 2) was normalized the total numbers nuclei in the fields.
These assays were performed, following the same procedures to analyze DNA-damage markers. WI-38 cells were incubated with small molecules for 24 hrs, and then processed and incubated with primary antibody (rabbit anti-LC3A/B, 1:100) overnight at 4 C. The next day, samples were processed and incubated with fluorophore-conjugated secondary antibody and further incubated with DAPI dye. Images were collected on an INCell Analyzer 2000 and analyzed with the Developer software. Total LC3A/B puncta intensity was normalized the total numbers of DAPI-positive nuclei.

| Structure (SMILES) | Screen 1: Screening, at 10 uM (viability assay by ATP measurement, normalized fold-change shown, >=2.5) (WI-38 cells) | Screen 2: Dose response, at 10 uM (viability assay by ATP measurement, normalized fold-change shown, >=1.5) (WI-38 cells) | Screen 3: Dose response, at 20 uM (viability assay by ATP measurement, normalized fold-change shown) (WI-38 cells) | Exp. 1, under H2O2 stress treatment, at 10 uM (fold change) (WI-38 cells) | Exp. 2, under H2O2 stress treatment, at 10 uM (fold change) (WI-38 cells) | Experiment 1, WI-38 cells (under H2O2 stress treatment), at 10 uM (fold change) (WI-38 cells) | Experiment 2, WI-38 cells (under H2O2 stress treatment), at 10 uM (fold change) (WI-38 cells) | Dose response retest, at 10 uM (fold change) (WI-38 cells) | Dose response retest, at 20 uM (fold change) (WI-38 cells) | Library Screening, at 10 uM (fold change) (WI-38 cells) | H2O2 stress treatment (3 hrs), at 10 uM (fold change) (WI-38 cells) | LC3A/B puncta induction (LC3A/B puncta) |
| --- | --- | --- | --- | --- | --- | --- | --- | --- | --- | --- | --- | --- |
| NS(=O)(=O)c1ccc(NC(=O)c2ccc([N+](=O)[O-])o2)cc1 [Gr-1A] | 2.89 fold-change | 3.66 fold-change | 3.44 fold-change | 3.36 fold change | 2.36 fold change | 8.58 fold change | 12.06 fold change | 3.66 fold change | 3.44 fold change | 2.89 fold change | 3.77 fold change | ≥ 2 fold |
| CCc1ccccc1NC(=O)c1ccc([N+](=O)[O-])o1 [Gr-1C] | 5.35 fold-change | 2.67 fold-change | 3.27 fold-change | 27.32 fold change | 1.90 fold change | 7.64 fold change | 24.98 fold change | 2.67 fold change | 3.27 fold change | 5.35 fold change | 11.38 fold change | ≥ 2 fold |
| O=C(Nc1cccc(Cl)c1)c1ccc([N+](=O)[O-])o1 [Gr-1D] | 5.99 fold-change | 4.84 fold-change | 4.85 fold-change | 11.24 fold change | 7.36 fold change | 8.31 fold change | 18.93 fold change | 4.84 fold change | 4.85 fold change | 5.99 fold change | 6.98 fold change | ≥ 2 fold |
| O=C(Nc1ccc(Cl)c(Cl)c1)c1ccc([N+](=O)[O-])o1 [Gr-1G] | 33.25 fold-change | 7.81 fold-change | 4.96 fold-change | 14.33 fold change | 11.12 fold change | – | – | 7.81 fold change | 4.96 fold change | 33.25 fold change | – | ≥ 2 fold |
| COC(=O)CCc1sc2c(c1[N+](=O)[O-])NC(=O)CCC2 [O20] | 8.90 fold-change | 1.41 fold-change | 1.82 fold-change | 3.13 fold change | 1.25 fold change | 1.72 fold change | 31.18 fold change | 1.41 fold change | 1.82 fold change | 8.90 fold change | 3.50 fold change | – |
| COc1ccc(/C=C2\SC(=N)N(c3nccs3)C2=O)cc1 [O21] | 10.24 fold-change | 1.59 fold-change | 8.46 fold-change | 2.87 fold change | 2.39 fold change | 1.68 fold change | 2.42 fold change | 1.59 fold change | 8.46 fold change | 10.24 fold change | 1.27 fold change | – |
| CC(C)(C)c1ccc(OCC(=O)Nc2ccc3c4c(cccc24)C(=O)NC3=O)cc1 [O22] | 14.30 fold-change | 3.28 fold-change | 5.11 fold-change | 6.38 fold change | 8.06 fold change | 2.35 fold change | 13.59 fold change | 3.28 fold change | 5.11 fold change | 14.30 fold change | 9.05 fold change | – |
| Oc1nc(-c2ccccn2)nc2c1Cc1cc(F)ccc1O2 [O24] | 18.69 fold-change | 27.09 fold-change | 30.94 fold-change | – | – | – | – | – | – | – | – | – |
| O=C(O)c1cc(Cl)c(Cl)cc1C(=O)Nc1ccccc1 [O25] | 40.54 fold-change | 34.84 fold-change | 43.28 fold-change | – | – | – | – | – | – | – | – | – |
| Oc1cc(-c2ccccc2)nc2c(-c3ccc(Cl)cc3)c(Cc3ccccc3)nn12 [O26] | 45.06 fold-change | 1.05 fold-change | 0.68 fold-change | – | – | – | – | – | – | – | – | – |
| Cc1cc(C)n(-c2nc(O)cc(-c3ccccc3)n2)n1 [O28] | 58.35 fold-change | 46.91 fold-change | 41.23 fold-change | – | – | – | – | – | – | – | – | – |
| CCCCCCc1cc(C=O)c(O)cc1O [O29] | 24.70 fold-change | 4.10 fold-change | 44.54 fold-change | – | – | – | – | – | – | – | – | – |
| CC(C)CCOc1ccc(C(=O)C(CN2CCOCC2)c2ccccc2)cc1 (stereo not drawn) [O30] | 2.59 fold-change | 2.03 fold-change | 2.14 fold-change | – | – | – | – | – | – | – | – | – |
| Nc1c(Cl)ncnc1NCCCn1ccnc1 [O31] | 3.22 fold-change | 2.00 fold-change | 2.68 fold-change | – | – | – | – | – | – | – | – | – |

— patent US11413278B2, “Compounds and methods for promoting stress resistance” (priority 2015, dated 2022)
